Reference: article PMC4336329 (PLoS ONE, 2015)
The campaign covered roughly 310,000 compounds. About 2,200 (0.71%) showed an effect of 50% or more. Effects have a minus sign here. Some of the results follow.

target: human ether-à-go-go-related gene (hERG) potassium channel (human, UniProt Q12809); test: primary screen, population patch clamp on CHO cells stably expressing hERG
Sequence (Q12809 whole entry, looked up): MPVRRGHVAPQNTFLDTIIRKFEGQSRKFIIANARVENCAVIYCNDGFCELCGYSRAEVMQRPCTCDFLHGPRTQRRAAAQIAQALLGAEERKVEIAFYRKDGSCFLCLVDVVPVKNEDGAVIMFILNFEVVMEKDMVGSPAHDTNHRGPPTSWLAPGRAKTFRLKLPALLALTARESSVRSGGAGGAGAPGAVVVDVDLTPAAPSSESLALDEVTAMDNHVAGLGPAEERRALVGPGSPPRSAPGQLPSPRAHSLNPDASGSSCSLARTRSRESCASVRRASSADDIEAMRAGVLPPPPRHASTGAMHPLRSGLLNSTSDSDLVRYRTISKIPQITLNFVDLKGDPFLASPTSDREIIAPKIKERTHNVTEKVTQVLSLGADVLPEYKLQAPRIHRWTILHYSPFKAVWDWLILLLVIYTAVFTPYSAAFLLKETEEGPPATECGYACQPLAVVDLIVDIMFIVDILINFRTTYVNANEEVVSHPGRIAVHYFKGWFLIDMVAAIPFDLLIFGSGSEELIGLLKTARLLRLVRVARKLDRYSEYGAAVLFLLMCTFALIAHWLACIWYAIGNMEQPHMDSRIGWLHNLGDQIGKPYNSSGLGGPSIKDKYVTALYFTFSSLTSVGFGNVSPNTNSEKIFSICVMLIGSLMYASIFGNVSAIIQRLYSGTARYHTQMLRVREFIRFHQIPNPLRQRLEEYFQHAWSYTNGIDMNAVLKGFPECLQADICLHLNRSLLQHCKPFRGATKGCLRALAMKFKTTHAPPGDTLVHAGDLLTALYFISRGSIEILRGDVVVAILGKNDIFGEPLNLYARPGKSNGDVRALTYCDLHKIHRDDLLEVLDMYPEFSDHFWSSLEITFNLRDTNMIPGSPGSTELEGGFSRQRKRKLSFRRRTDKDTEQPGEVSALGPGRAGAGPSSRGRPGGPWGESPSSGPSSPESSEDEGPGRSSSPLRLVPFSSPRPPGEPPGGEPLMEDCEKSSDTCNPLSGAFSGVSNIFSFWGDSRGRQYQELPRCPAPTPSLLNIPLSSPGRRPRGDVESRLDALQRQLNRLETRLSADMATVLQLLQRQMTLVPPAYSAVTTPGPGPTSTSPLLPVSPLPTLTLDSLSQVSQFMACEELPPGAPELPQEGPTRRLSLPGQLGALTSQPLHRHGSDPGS

Row | SMILES | hERG current change (%, negative = inhibition) at 1uM [%]
1 | Cc1ccc(-c2c[nH]c(=S)n2-c2ccccc2F)cc1 | 15.4
2 | O=C(OCCNC(=O)c1cc2ccccc2oc1=O)c1cccnc1 | 7.47
3 | O=C(Nc1ccccc1)N1CCN(C(=O)Nc2ccccc2)CC1 | -4.42
4 | CCOC(=O)c1sc(-n2[nH]c(C)cc2=O)nc1C | -7.86
5 | COC(=O)C1=C(c2cccc(C#N)c2)C[C@@H]2CC[C@H]1N2C(=O)NCC1CC1 | 13.7
6 | CC1CCC(Nc2nnnn2-c2ccccc2)CC1 (centres unmarked) | 13.3
7 | O=C(COC(=O)CCN1C(=O)c2cccc([N+](=O)[O-])c2C1=O)NCc1ccccc1 | 23
8 | Brc1cccc(CSc2nnc(-c3ccncc3)o2)c1 | -1.12
9 | CCOC(=O)c1ccccc1NC(=O)Nc1ccc(OC)c(OC)c1 | -4.33
10 | Cc1oc(CSCCSCc2cc(C(=O)O)c(C)o2)cc1C(=O)O | 16.7
11 | Brc1ccc(NC(c2ccccc2)c2ccncc2)cc1.Cl (centres unmarked) | 17.3
12 | CCc1ccc2nc(NC(=O)C3CCN(c4ncnc5sc(C)c(C)c45)CC3)sc2c1 | 13.8
13 | CCOc1ccc(CCNC(=O)c2cc3sccc3n2C)cc1OCC | -2.49
14 | COc1ccc(/C=N/NC2=NS(=O)(=O)c3ccccc32)cc1OC | 16.4
15 | O=C(CSc1ccc([N+](=O)[O-])cn1)Nc1ccccc1N1CCOCC1 | 5.87
16 | C=C(C)Cn1c(-c2ccccc2)nc2ccccc21 | 0.175
17 | CC(C)CNS(=O)(=O)c1ccc(CCC(=O)O)cc1 | 10.9
18 | COc1ccc(CCNC(=O)c2csc3c2CCCC3)cc1OC | 16
19 | CC(C)c1ccc(N2C(=O)NC(=O)/C(=C/C=C/c3ccco3)C2=O)cc1 | 3.71
20 | COc1ccc(OC)c(NC(=O)c2cc3ccccc3o2)c1 | 12.8
21 | COCCN(C(=S)Nc1c(C)cc(C)cc1C)C(C)c1cccnc1 (centres unmarked) | 11.6
22 | NS(=O)(=O)c1cccc(NC(=O)COC(=O)CCSc2ccccc2)c1 | -5.4

Row | SMILES | hERG current change (%, negative = inhibition) at 1uM [%]
23 | O=C(Nc1ccnn1C1CCN(C(=O)c2c(F)cccc2F)CC1)C1CC1 | 0.172
24 | CN(C)c1ccc(-c2nnc(-c3ccc(S(=O)(=O)C(F)F)cc3)o2)cc1 | 2.22
25 | CC(C)(C)NC(=O)CSc1nnc(-c2ccco2)n1Cc1ccco1 | -6.99
26 | CC(C)C(=O)NCCc1nc(-c2ccccc2)no1 | -2.6
27 | C[C@H](NC(=O)[C@H]1N2C(=O)c3ccccc3C2SC1(C)C)C(=O)NCC1CCCO1 (some centres unmarked) | 36.2
28 | C#CCOCCOCCOCCNc1nc(N2CCN(C(=O)C([C@@H](C)CC)n3cc(C(N)COC(=O)C(F)(F)F)nn3)CC2)nc(N2CCN(C(=O)[C@H](Cc3cc4ccccc4[nH]3)n3cc(C(N)CO)nn3)CC2)n1.Cl (some centres unmarked) | 7.2
29 | CC(C)(C)NC(=O)CSc1nncn1NCc1cccc2ccccc12 | 8.57
30 | O=C1NC[C@H](c2ccccc2)N(CCc2cccc(F)c2)C1=O | 11.1
31 | CCOCCCNC(=S)N1C2CCC1CC(NC(=O)NC1CCCCC1)C2 (centres unmarked) | 1.61
32 | CC1CCc2cc(F)ccc2N1C(=O)C12CCC(C)(C(=O)O1)C2(C)C (centres unmarked) | 7.96
33 | N#Cc1c(-c2ccncc2)c2c([nH]c1=O)-c1ccccc1OC2 | 20.9
34 | Cc1ccc(NC(=O)c2ccc(OC(=S)N3CCOCC3)cc2)cc1 | 5.81
35 | Cc1ccccc1N1C(=O)c2ccccc2C1O (centres unmarked) | 13.4
36 | COc1ccccc1NC(=O)/C(C#N)=C/c1ccncc1 | 19
37 | C/C(=N/Nc1nc(-c2ccccc2)cc(-c2ccc(F)cc2)n1)c1cccc(N)c1 | 3.31
38 | COc1ccc(N2CCN(c3nc4ccccc4nc3NS(=O)(=O)c3ccccc3)CC2)cc1 | 9.73
39 | O=C(O)c1cccnc1Nc1cccc(C(F)(F)F)c1 | 16.5
40 | O=C(Nc1ccc(SC(F)F)cc1)C12CCC(CC1)C2 | 5.66
41 | CCCCOc1ccccc1-c1cc(C(=O)O)[nH]n1 | 8.23
42 | COc1ccc(-c2nnc(SCc3cc(C)cc(C)c3)o2)cc1 | 7.38
43 | CCN(C(=O)Cc1c(C(=O)O)n(C)c2ccccc12)c1cc(OC)ccc1OC | 8.98
44 | Nc1ccc2nc(SCC(=O)c3ccccc3)sc2c1 | 10.8
